Assay results taken from the supplement of paper PMC4604168 (melanoma cell lines).
This is one part of the list. Repeats are few or missing, and single values can be far off.

Columns and labels:
Assay in all cases: cell count relative to DMSO control; melanoma cells; higher = more viable cells
Conditions in all cases: library dose: low library concentration; 72 h
MZ2-MEL = tested on: MZ2-MEL
MeWo = tested on: MeWo
RPMI7951 = tested on: RPMI7951
RVH-421 = tested on: RVH-421
SkMel28 = tested on: SkMel28
SkMel2 = tested on: SkMel2
SkMel30 = tested on: SkMel30
UACC62 = tested on: UACC62
SkMel5 = tested on: SkMel5
UACC257 = tested on: UACC257
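Also: cell number obtained by counting DAPI-stained nuclei in high-throughput microscope images with image analysis software, screen run in 1,536-well plates.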

Row | SMILES | cell count (MZ2-MEL) [%] | cell count (MeWo) [%] | cell count (RPMI7951) [%] | cell count (RVH-421) [%] | cell count (SkMel28) [%] | cell count (SkMel2) [%] | cell count (SkMel30) [%] | cell count (UACC62) [%] | cell count (SkMel5) [%] | cell count (UACC257) [%]
1 | C#Cc1cccc(Nc2ncnc3cc(OCCOC)c(OCCOC)cc23)c1 [erlotinib] + C[C@]1(c2nc3c(C(N)=O)cccc3[nH]2)CCCN1 [Veliparib] (first compound 0.8 µM, partner dose 1.4 µM) | 91.5 | 83.9 | 85.4 | 103 | 85.4 | 86.4 | 78.3 | 79.2 |  | 
2 | Clc1ccc(Nc2nnc(Cc3ccncc3)c3ccccc23)cc1 [vatalanib] + COc1ccc(Cl)c(Nc2nc3ccccc3nc2NS(=O)(=O)c2cccc(NC(=O)C(C)(C)N)c2)c1 [XL147] (first compound 2 µM, partner dose 0.8 µM) | 89.6 | 66.2 | 85.8 | 77.8 | 95.6 | 91.5 | 88.1 | 86.1 |  | 
3 | Clc1ccc(Nc2nnc(Cc3ccncc3)c3ccccc23)cc1 [vatalanib] + COCC[n+]1c2c(n(Cc3cnccn3)c1C)C(=O)c1ccccc1C2=O [YM155] (first compound 2 µM, partner dose 0.0004 µM) | 73.7 | 71.4 | 89.4 | 81.8 | 96 | 94.4 | 94 | 86.8 |  | 
4 | Clc1ccc(Nc2nnc(Cc3ccncc3)c3ccccc23)cc1 [vatalanib] + CC(C)CCN1c2nc(Nc3cc(F)c(O)c(F)c3)ncc2N(C)C(=O)C1C [BID1870] (first compound 2 µM, partner dose 0.2 µM) | 98.3 | 79.5 | 96.9 | 75.9 | 76.5 | 101 | 115 | 80.7 | 85.8 | 79.8
5 | Clc1ccc(Nc2nnc(Cc3ccncc3)c3ccccc23)cc1 [vatalanib] + Cc1nc(Nc2ncc(C(=O)Nc3c(C)cccc3Cl)s2)cc(N2CCN(CCO)CC2)n1 [dasatanib] (first compound 2 µM, partner dose 0.004 µM) | 77.2 | 60.9 | 43.6 | 68 | 87.6 | 89.3 | 104 | 79 |  | 
6 | OCc1c[nH]c2ccccc12 [Indole-3-carbinol] + Nc1cccc2c1CN(C1CCC(=O)NC1=O)C2=O [lenalidomide] (first compound 0.8 µM, partner dose 1 µM) | 102 | 95 | 115 | 90.6 | 90 | 103 | 108 | 106 |  | 
7 | OCc1c[nH]c2ccccc12 [Indole-3-carbinol] + C#Cc1cccc(Nc2ncnc3cc(OCCOC)c(OCCOC)cc23)c1 [erlotinib] (first compound 0.8 µM, partner dose 0.8 µM) | 85.8 | 83.2 | 86.6 | 90.4 | 86.5 | 87.8 | 94.4 | 89.8 |  | 
8 | OCc1c[nH]c2ccccc12 [Indole-3-carbinol] + Cn1c(Nc2ccc(C(F)(F)F)cc2)nc2cc(Oc3ccnc(-c4ncc(C(F)(F)F)[nH]4)c3)ccc21 [CHIR265] (first compound 0.8 µM, partner dose 0.08 µM) | 89.8 | 65.9 | 69.6 | 56 | 75.2 | 87.4 | 55.2 | 67.7 |  | 
9 | Cn1c(Nc2ccc(C(F)(F)F)cc2)nc2cc(Oc3ccnc(-c4ncc(C(F)(F)F)[nH]4)c3)ccc21 + Nc1cccc2c1CN(C1CCC(=O)NC1=O)C2=O [lenalidomide] (first compound 0.08 µM, partner dose 1 µM) | 73.5 | 71.5 | 57.5 | 60.8 | 52 | 80.2 | 50 | 41.9 |  | 
10 | C#Cc1cccc(Nc2ncnc3cc(OCCOC)c(OCCOC)cc23)c1 [erlotinib] + O=C(CCCCCCC(=O)Nc1ccccc1)NO [vorinostat] (first compound 0.8 µM, partner dose 0.08 µM) | 99.6 | 72.8 | 101 | 89.6 | 73.2 | 94.5 | 94.4 | 78.6 | 87.9 | 79.6
11 | C#Cc1cccc(Nc2ncnc3cc(OCCOC)c(OCCOC)cc23)c1 [erlotinib] + Cc1nc(Nc2ncc(C(=O)Nc3c(C)cccc3Cl)s2)cc(N2CCN(CCO)CC2)n1 [dasatanib] (first compound 0.8 µM, partner dose 0.004 µM) | 78.9 | 79 | 67.3 | 107 | 81.5 | 93.6 | 73.1 | 78.4 |  | 
12 | OCc1c[nH]c2ccccc12 [Indole-3-carbinol] + COCC[n+]1c2c(n(Cc3cnccn3)c1C)C(=O)c1ccccc1C2=O [YM155] (first compound 0.8 µM, partner dose 0.0004 µM) | 54.8 | 100 | 100 | 85.1 | 110 | 97.5 | 95.7 | 90.4 |  | 
13 | Clc1ccc(Nc2nnc(Cc3ccncc3)c3ccccc23)cc1 [vatalanib] + C[C@]1(c2nc3c(C(N)=O)cccc3[nH]2)CCCN1 [Veliparib] (first compound 2 µM, partner dose 1.4 µM) | 97.4 | 78.8 | 88.9 | 101 | 92.4 | 96.8 | 97.1 | 93.2 |  | 
14 | Clc1ccc(Nc2nnc(Cc3ccncc3)c3ccccc23)cc1 [vatalanib] + O=C(O)C(=O)Nc1sc2c(c1C(=O)O)CCNC2 [TCS401] (first compound 2 µM, partner dose 1.66667 µM) | 100 | 96 | 101 | 112 | 95 | 87.4 | 102 | 101 | 77.1 | 92.5
15 | Clc1ccc(Nc2nnc(Cc3ccncc3)c3ccccc23)cc1 [vatalanib] + Nc1cccc2c1CN(C1CCC(=O)NC1=O)C2=O [lenalidomide] (first compound 2 µM, partner dose 1 µM) | 99.3 | 76.8 | 106 | 87.5 | 105 | 97 | 120 | 86.2 |  | 
16 | Clc1ccc(Nc2nnc(Cc3ccncc3)c3ccccc23)cc1 [vatalanib] + C#Cc1cccc(Nc2ncnc3cc(OCCOC)c(OCCOC)cc23)c1 [erlotinib] (first compound 2 µM, partner dose 0.8 µM) | 96 | 64.9 | 82.6 | 78.2 | 86.1 | 93.4 | 80.3 | 84.5 |  | 
17 | COCC[n+]1c2c(n(Cc3cnccn3)c1C)C(=O)c1ccccc1C2=O + Cn1nnc2c(C(N)=O)ncn2c1=O [temozolomide] (first compound 0.0004 µM, partner dose 2 µM) | 43.7 | 95.1 | 73 | 101 | 85 | 79.7 | 89.6 | 94.3 |  | 
18 | OCc1c[nH]c2ccccc12 [Indole-3-carbinol] + C[C@]1(c2nc3c(C(N)=O)cccc3[nH]2)CCCN1 [Veliparib] (first compound 0.8 µM, partner dose 1.4 µM) | 92.3 | 106 | 128 | 96.5 | 97.6 | 96.1 | 79.3 | 92.2 |  | 
19 | Nc1cccc2c1CN(C1CCC(=O)NC1=O)C2=O (stereo unspecified) [lenalidomide] + C[C@]1(c2nc3c(C(N)=O)cccc3[nH]2)CCCN1 [Veliparib] (first compound 1 µM, partner dose 1.4 µM) | 110 | 99.4 | 109 | 96.4 | 106 | 93.5 | 89.6 | 96.1 |  | 
20 | C#Cc1cccc(Nc2ncnc3cc(OCCOC)c(OCCOC)cc23)c1 [erlotinib] + Cn1c(Nc2ccc(C(F)(F)F)cc2)nc2cc(Oc3ccnc(-c4ncc(C(F)(F)F)[nH]4)c3)ccc21 [CHIR265] (first compound 0.8 µM, partner dose 0.08 µM) | 75.7 | 71.1 | 60 | 80.2 | 56.4 | 93.3 | 41 | 64.9 |  | 
21 | OCc1c[nH]c2ccccc12 [Indole-3-carbinol] + Cn1nnc2c(C(N)=O)ncn2c1=O [temozolomide] (first compound 0.8 µM, partner dose 2 µM) | 97.3 | 97.3 | 98.2 | 94.5 | 63.8 | 104 | 81.6 | 83.2 |  | 
22 | Nc1cccc2c1CN(C1CCC(=O)NC1=O)C2=O (stereo unspecified) [lenalidomide] + Cc1ccc(NC(=O)c2cccc(N(C)C)c2)cc1NC(=O)c1ccc(O)cc1 [ZM336372] (first compound 1 µM, partner dose 2 µM) | 84.4 | 99.4 | 98.4 | 96.9 | 78.5 | 108 | 80.2 | 106 | 99.8 | 69.9
23 | Clc1ccc(Nc2nnc(Cc3ccncc3)c3ccccc23)cc1 [vatalanib] + NCC(=O)Nc1ccc(-n2nc(C(F)(F)F)cc2-c2ccc3c(ccc4ccccc43)c2)cc1 [OSU03012] (first compound 2 µM, partner dose 1 µM) | 77.2 | 55.1 | 86.6 | 87.9 | 90.6 | 68.6 | 46.1 | 95.1 | 89 | 87.2
24 | COCC[n+]1c2c(n(Cc3cnccn3)c1C)C(=O)c1ccccc1C2=O + N#Cc1c(O)c2c(-c3ccc(-c4ccccc4O)cc3)csc2[nH]c1=O [A769662] (first compound 0.0004 µM, partner dose 2 µM) | 68 | 100 | 99 | 95.5 | 101 |  | 95.9 | 88.9 | 81.2 | 115
25 | COCC[n+]1c2c(n(Cc3cnccn3)c1C)C(=O)c1ccccc1C2=O + Oc1nc(-c2ccc(C(F)(F)F)cc2)nc2c1CSCC2 [XAV939] (first compound 0.0004 µM, partner dose 2 µM) | 59.3 | 86.2 | 72.6 | 111 | 81.8 |  | 97.7 | 84 | 70.8 | 89.8
26 | COCC[n+]1c2c(n(Cc3cnccn3)c1C)C(=O)c1ccccc1C2=O + COc1ccc(-c2ccc3c(N4CCOCC4)nc(N4C[C@@H](C)O[C@@H](C)C4)nc3n2)cc1CO [KU0063794] (first compound 0.0004 µM, partner dose 0.02 µM) | 41.4 | 80.4 | 73.7 | 99.8 | 94.2 |  | 73.5 | 81.8 | 61 | 88.4
